Data reported in the BET-seq Pho4 binding data (Le et al. 2018).
This is one part of the list. The energies were worked out here from pooled read counts, against the library average; single values are noisy.

molecular target: T1, Pho4 (S. cerevisiae) (UniProt P07270); experiment: relative binding free energy (BET-seq); higher = weaker binding; conditions: reference: library average
T1 sequence: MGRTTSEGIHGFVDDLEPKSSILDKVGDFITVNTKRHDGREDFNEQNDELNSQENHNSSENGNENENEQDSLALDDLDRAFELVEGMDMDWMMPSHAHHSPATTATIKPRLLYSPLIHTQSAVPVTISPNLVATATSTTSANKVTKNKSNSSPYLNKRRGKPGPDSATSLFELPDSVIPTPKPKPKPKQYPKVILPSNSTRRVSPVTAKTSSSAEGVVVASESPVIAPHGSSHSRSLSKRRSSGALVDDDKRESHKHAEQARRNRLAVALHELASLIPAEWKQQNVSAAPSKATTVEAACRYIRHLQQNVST

Sequence | relative binding free energy
TGGAACACGTGAACGG | 0.52 kcal/mol
TAGGACACGTGCTTGG | -0.04 kcal/mol
TACGGCACGTGGTTGA | -0.22 kcal/mol
TGTGTCACGTGAGATG | 0.35 kcal/mol
ATGATCACGTGGGGAT | 0 kcal/mol
GTGTTCACGTGAACAT | 0.52 kcal/mol
CAGATCACGTGTGGTC | 0.34 kcal/mol
GTGTACACGTGGCAGG | -0.08 kcal/mol
TTGATCACGTGAGCTT | 0.29 kcal/mol
GTGCTCACGTGGAGTT | 0.14 kcal/mol
GTGGGCACGTGTGGCC | 0.12 kcal/mol
GGGGTCACGTGAGTGA | 0.35 kcal/mol
TGATTCACGTGATGCA | 0.28 kcal/mol
GTATACACGTGAGCGT | 0.08 kcal/mol
TCAGTCACGTGGTGTG | -0.16 kcal/mol
TATTGCACGTGGGCTT | -0.18 kcal/mol
ATGGACACGTGGTTAA | -0.04 kcal/mol
TGTATCACGTGTGGTG | 0.25 kcal/mol
TGTTTCACGTGCAGCG | 0.23 kcal/mol

Sequence | relative binding free energy
ATAGGCACGTGGTAGA | -0.31 kcal/mol
GGTTGCACGTGCGTGA | 0.06 kcal/mol
TTTTACACGTGCTTCA | 0.18 kcal/mol
CGATGCACGTGGTAGT | -0.1 kcal/mol
AATGGCACGTGCAAGG | -0.01 kcal/mol
TGAATCACGTGCATGT | 0.06 kcal/mol
AGTGCCACGTGTTATG | -0.24 kcal/mol
TGTGGCACGTGGTTTA | -0.12 kcal/mol
TAGTACACGTGTGGCG | 0.06 kcal/mol
AGTTGCACGTGAGAGG | 0.21 kcal/mol
ATGTGCACGTGTGAGT | 0.02 kcal/mol
CGTTCCACGTGAGGAT | 0.43 kcal/mol
GGATACACGTGGTAGG | 0.12 kcal/mol
CAGTTCACGTGTTCGT | 0.32 kcal/mol
CTCGTCACGTGTTTAT | 0.2 kcal/mol
GTATTCACGTGGGTGC | 0.16 kcal/mol
TGGCACACGTGATGGA | 0.42 kcal/mol
TTTTGCACGTGCTTGT | 0.1 kcal/mol
TATAGCACGTGTTGGA | -0.03 kcal/mol

Sequence | relative binding free energy
TTAGGCACGTGCTGTG | -0.16 kcal/mol
AGTGGCACGTGTTTGT | -0.04 kcal/mol
GAGATCACGTGTTAGG | 0.28 kcal/mol
CGGGTCACGTGTGCAG | 0.1 kcal/mol
CGGAGCACGTGGGGCC | -0.09 kcal/mol
AGGGTCACGTGAATCG | 0.24 kcal/mol
TAGAGCACGTGGGTCA | -0.26 kcal/mol
TGAGTCACGTGAATTG | 0.29 kcal/mol
GTACGCACGTGCTGTG | 0.01 kcal/mol
AGGTTCACGTGAAAGA | 0.53 kcal/mol
AGTGTCACGTGCCTTG | -0.05 kcal/mol
GGGGTCACGTGTTCCT | 0.23 kcal/mol
AGGGGCACGTGGTACA | -0.16 kcal/mol
GAAAACACGTGTGTAT | 0.18 kcal/mol
AGGGCCACGTGGGAGC | -0.18 kcal/mol
TATTTCACGTGAGATG | 0.4 kcal/mol
TGGGACACGTGGGGAG | -0.03 kcal/mol
GTCGACACGTGTGGAG | 0.2 kcal/mol
GAGTTCACGTGAGATA | 0.51 kcal/mol
